Among all 370,000 compounds or so, about 150 (0.041%) were called active. The shares of active, inactive and inconclusive entries below differ from those in the screen. Calls follow the shape of the dose curve; as a rule, active = well fitted inhibition curve with a large enough effect; inconclusive = small, poorly fitted or top-dose-only effect; inactive = flat fitted curve, though single readings scatter. No potency is given beside an inconclusive call; the fits are too rough.
molecular target: Beta-lactamase (Escherichia coli (strain K12)) (UniProt P00811); assay: qHTS Inhibitors of AmpC Beta-Lactamase (assay with detergent); details: AmpC hydrolysis of nitrocefin, absorbance 480 nm, 0.01% Triton; activity change, negative = inhibition: at 114 µM (top of the series); also: nearly all actives have a fitted effect of over 25% in size;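 as to activity change, negative = inhibition: 0% = no-compound wells and -100% = no-enzyme wells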
UniProt P00811, sequence (P00811 whole entry, looked up): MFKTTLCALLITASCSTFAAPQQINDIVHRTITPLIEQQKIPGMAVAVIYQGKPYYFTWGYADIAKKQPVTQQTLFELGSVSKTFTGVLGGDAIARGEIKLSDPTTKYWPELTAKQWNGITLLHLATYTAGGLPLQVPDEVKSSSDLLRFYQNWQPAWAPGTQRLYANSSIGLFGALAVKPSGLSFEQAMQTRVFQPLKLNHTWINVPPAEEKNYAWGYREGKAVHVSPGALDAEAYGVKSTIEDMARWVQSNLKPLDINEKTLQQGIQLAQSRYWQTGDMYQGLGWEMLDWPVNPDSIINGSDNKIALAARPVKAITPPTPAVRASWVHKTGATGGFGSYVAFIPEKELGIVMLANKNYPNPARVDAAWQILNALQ
Method in brief: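 AmpC (5.3 nM in the dispensed reagent) in 20 mM phosphate pH 7.0 with 0.01% (detergent screen) or 0.0001% Triton X-100 was preincubated with compounds for 15 min at room temperature. Nitrocefin was then added from an 800 uM solution, and hydrolysis was followed at 480 nm.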
Potency is read from the fitted curve at half-maximal effect; tags tell the direction and shape of the fitted curve.

| SMILES | Potency | activity change, negative = inhibition |
| --- | --- | --- |
| Cc1ccn2c(=O)nc(SCC(=O)NC3CCCC3)nc2c1 | inconclusive [inhibitor, partial curve, poor fit] |  |
| CC(C)C(C(=O)Nc1ccc(S(=O)(=O)N2CCOCC2)cc1)N1C(=O)c2ccccc2C1=O (configuration not stated) | inconclusive [inhibitor, full curve, poor fit] |  |
| NS(=O)(=O)c1ccc(NC(=S)NC(=O)c2ccc(-c3ccccc3)cc2)cc1 | inconclusive [inhibitor, partial curve, poor fit] |  |
| O=C(COc1ccc2ccccc2c1Br)Nc1ccncc1 |  | inactive: 3.56% |
| COc1ccc([C@H]2[C@H](C(=O)C(C)(C)C)N3N=Cc4ccccc4C3[C@]23N=C(c2ccccc2)OC3=O)cc1OC (some centres not stated) | inconclusive [inhibitor, full curve, poor fit] |  |
| CCc1ccc(NC(=O)CSc2nc3c(sc4ccccc43)c(=O)n2CCCOC(C)C)cc1 |  | inactive: 4.19% |
| CC(c1nnc(SCC(=O)Nc2sccc2C#N)n1-c1ccc(Cl)cc1)N(C)C (configuration not stated) | inconclusive [inhibitor, partial curve, poor fit] |  |
| Cc1ccc(-n2c(SCC3CCCCO3)nnc2-c2ccco2)cc1 (configuration not stated) | inconclusive [inhibitor, single point] |  |
| CCCCNC(=S)NNC(=O)CCn1cc(C)cn1 | inconclusive [inhibitor, partial curve] |  |
| CCc1ccc(OCCNC(=O)OCc2ccccc2)cc1 | inconclusive [inhibitor, single point] |  |
| CCC(C)[C@H](NC(=O)NC1CCN(Cc2ccccc2)CC1)C(=O)OC (some centres not stated) | inconclusive [inhibitor, partial curve, poor fit] |  |
| CCCn1c(NC(=O)c2cccc(C)c2C)nc2ccccc21 | inconclusive [inhibitor, full curve, poor fit] |  |
| CCN(CC(=O)Nc1ccc(NC(C)=O)cc1)C(=O)c1ccccc1SCc1c(C)noc1C |  | inactive: -13% |
| CCC(=O)Nc1ccc(NC(=O)c2ccccc2Cl)nc1 |  | inactive: -4.08% |
| CC(C)(Oc1ccc(Cl)cc1)C(=O)NNC(=O)c1ccc(Br)o1 |  | inactive: -11.6% |
| CC1(C)CC(=O)c2cnc(NC(=O)c3ccco3)nc2C1 | inconclusive [inhibitor, full curve, poor fit] |  |
| O=C(COc1ccc(Cl)cc1)Nc1nnc(-c2ccco2)o1 | inconclusive [inhibitor, partial curve, poor fit] |  |
| CC(=O)/C(C#N)=C1\NC(=O)C(Cc2cc(Cl)ccc2Cl)S1 (configuration not stated) |  | inactive: 3.49% |
| COc1cc(C2/C(=C(/O)c3ccc(OCC(C)C)cc3)C(=O)C(=O)N2CCN(C)C)ccc1O (configuration not stated) | inconclusive [inhibitor, full curve, poor fit] |  |
| CC(C)=CCC12CN3CCN(CC(C3)C1=O)C2 | inconclusive [inhibitor, partial curve] |  |
| O=C(COC(=O)C1(c2ccccc2)CC1)NNC(=O)c1ccccc1F | inconclusive [inhibitor, full curve, poor fit] |  |

| SMILES | Potency | activity change, negative = inhibition |
| --- | --- | --- |
| S=C1NCCc2ccc(Cl)cc2C1c1ccccc1 (configuration not stated) | inconclusive [inhibitor, single point] |  |
| COc1ccc(Nc2ncc(C(=O)N3CCN(c4ccc(F)cc4)CC3)c3ccccc23)cc1 | inconclusive [inhibitor, partial curve, poor fit] |  |
| CCc1ccc(OCCn2cccn2)cc1 |  | inactive: 1.12% |
| Cc1cc(C)c(S(=O)(=O)c2ccccc2)c(N2CCOCC2)n1 | inconclusive [inhibitor, partial curve, poor fit] |  |
| CCOc1ccc(NC(=O)[C@@H](NC(=O)OCc2ccccc2)[C@@H](C)CC)cc1 | inconclusive [inhibitor, full curve, poor fit] |  |
| NS(=O)(=O)c1ccc2nc(NC(=O)c3ccc4ncsc4c3)sc2c1 |  | inactive: 3.25% |
| Cc1ccc(CN2CCN(/N=C/c3ccc(C(=O)O)cc3)CC2)c(C)c1 |  | inactive: 0.53% |
| Cc1ccc(C(=O)NCC(=O)OCCOc2cccc(Cl)c2)cc1 | inconclusive [inhibitor, full curve, poor fit] |  |
| O=C(CSc1ncnc2c1nnn2-c1ccc(F)cc1)NCC1CCCO1 (configuration not stated) |  | inactive: -0.228% |
| CC(C)N(Cc1ccccc1)S(=O)(=O)c1ccc(F)cc1 | inconclusive [inhibitor, full curve] |  |
| CCCOC(=O)c1ccc(NC(=O)C(CC)CC)cc1 | inconclusive [inhibitor, partial curve, poor fit] |  |
| Cc1ccc(CNC(=O)C2=CCN(S(=O)(=O)c3ccc(C)cc3)CC2)cc1 | inconclusive [inhibitor, full curve, poor fit] |  |
| CCN(CC)CCNC(=O)c1ccc(NC(=O)c2cc(S(=O)(=O)N3CCCCC3)ccc2C)cc1 | inconclusive [inhibitor, partial curve, poor fit] |  |
| Clc1ccc(C(c2ccccc2)c2ncc[nH]2)cc1 (configuration not stated) | inconclusive [inhibitor, full curve, poor fit] |  |
| O=C(N1CCCCCC1)N1CCN(C(=O)N2CCOCC2)CC1 | inconclusive [inhibitor, partial curve] |  |
| CC(C)(C)OC(=O)NC1CNNC1=O (configuration not stated) |  | inactive: -5.42% |
| Cc1ccc(C(=O)NC2CCCCCC2)o1 | inconclusive [inhibitor, single point] |  |
| OCC(O)[C@@H](O[C@H]1O[C@H](CO)[C@@H](O)[C@H](O)[C@H]1O)[C@H](O)[C@@H](O)CO (some centres not stated) | inconclusive [inhibitor, full curve] |  |
| Cc1ccc(S(=O)(=O)N2CCN(C(=O)COC(=O)c3ccc(Br)o3)CC2)c(C)c1 | inconclusive [inhibitor, full curve, poor fit] |  |
| O=C(Nc1ccc(NC(=O)c2cccnc2Cl)cc1)c1cccc(Cl)c1 |  | inactive: -4.87% |
| O=C(Nc1nccs1)c1cnccn1 | inconclusive [inhibitor, partial curve, poor fit] |  |
